{"source": "the supplement of paper PMC8728848", "assay_in_all_cases": "glycan array binding signal (z-score within array); higher = stronger binding", "settings_in_all_cases": "glycan notation: IUPAC condensed, linker removed", "key": {"[1]": {"target": "Fuc(a1-2)[GalNAc(a1-3)]Gal(b1-3)GlcNAc(b1-6)GalNAc", "outline": "(§1)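 Arrays were curated from the Consortium for Functional Glycomics database, 3228 in total, and kept only where the protein sequence was available. Binding is expressed as a within-array Z-score. This score was averaged across arrays of the same protein sequence at different concentrations or buffers and across linkers, and negative values can be read as non-binding.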"}, "[2]": {"target": "Fuc(a1-2)[GalNAc(a1-3)]Gal(b1-4)Glc", "outline": "as §1"}, "[3]": {"target": "Fuc(a1-2)[GalNAc(a1-3)]Gal(b1-4)GlcNAc", "outline": "as §1"}, "[4]": {"target": "Fuc(a1-2)[GalNAc(a1-3)]Gal(b1-4)GlcNAc(b1-2)Man", "outline": "as §1"}, "[5]": {"target": "Fuc(a1-2)[GalNAc(a1-3)]Gal(b1-4)GlcNAc(b1-2)Man(a1-3)[Fuc(a1-2)[GalNAc(a1-3)]Gal(b1-4)GlcNAc(b1-2)Man(a1-6)]Man(b1-4)GlcNAc(b1-4)GlcNAc", "outline": "as §1"}, "[6]": {"target": "Fuc(a1-2)[GalNAc(a1-3)]Gal(b1-4)GlcNAc(b1-2)Man(a1-3)[Fuc(a1-2)[GalNAc(a1-3)]Gal(b1-4)GlcNAc(b1-2)Man(a1-6)]Man(b1-4)GlcNAc(b1-4)[Fuc(a1-6)]GlcNAc", "outline": "as §1"}, "[7]": {"target": "Fuc(a1-2)[GalNAc(a1-3)]Gal(b1-4)GlcNAc(b1-3)Gal(b1-4)GlcNAc", "outline": "as §1"}, "[8]": {"target": "Fuc(a1-2)[GalNAc(a1-3)]Gal(b1-4)GlcNAc(b1-3)Gal(b1-4)GlcNAc(b1-3)Gal(b1-4)GlcNAc", "outline": "as §1"}, "[9]": {"target": "Fuc(a1-2)[GalNAc(a1-3)]Gal(b1-4)GlcNAc(b1-3)GalNAc", "outline": "as §1"}, "[10]": {"target": "Fuc(a1-2)[GalNAc(a1-3)]Gal(b1-4)GlcNAc(b1-3)[Fuc(a1-2)[GalNAc(a1-3)]Gal(b1-4)GlcNAc(b1-6)]GalNAc", "outline": "as §1"}, "[11]": {"target": "Fuc(a1-2)[GalNAc(a1-3)]Gal(b1-4)GlcNAc(b1-6)GalNAc", "outline": "as §1"}, "[12]": {"target": "Fuc(a1-2)[GalNAc(a1-3)]Gal(b1-4)[Fuc(a1-3)]GlcNAc", "outline": "as §1"}, "[13]": {"target": "Fuc(a1-2)[GalNAc(a1-3)]Gal(b1-4)[Fuc(a1-3)]GlcNAc(b1-3)GalNAc", "outline": "as §1"}, "[14]": {"target": "Fuc(a1-2)[GalNAc(a1-4)]Gal(b1-4)GlcNAc", "outline": "as §1"}, "[15]": {"target": "Fuc(a1-2)[GalNAc(b1-3)]Gal", "outline": "as §1"}, "[16]": {"target": "Fuc(a1-3)GlcNAc", "outline": "as §1"}, "[17]": {"target": "Fuc(a1-3)[Gal(b1-4)]Glc6S", "outline": "as §1"}, "[18]": {"target": "Fuc(a1-3)[Gal(b1-4)]GlcNAc", "outline": "as §1"}, "[19]": {"target": "Fuc(a1-3)[Gal(b1-4)]GlcNAc(b1-2)Man", "outline": "as §1"}, "[20]": {"target": "Fuc(a1-3)[Gal(b1-4)]GlcNAc(b1-2)Man(a1-3)[Fuc(a1-3)[Gal(b1-4)]GlcNAc(b1-2)Man(a1-6)]Man(b1-4)GlcNAc(b1-4)GlcNAc", "outline": "as §1"}, "[21]": {"target": "Fuc(a1-3)[Gal(b1-4)]GlcNAc(b1-2)Man(a1-3)[Fuc(a1-3)[Gal(b1-4)]GlcNAc(b1-2)Man(a1-6)]Man(b1-4)GlcNAc(b1-4)[Fuc(a1-6)]GlcNAc", "outline": "as §1"}, "[22]": {"target": "Fuc(a1-3)[Gal(b1-4)]GlcNAc(b1-3)Gal(b1-3)[Fuc(a1-4)]GlcNAc", "outline": "as §1"}, "[23]": {"target": "Fuc(a1-3)[Gal(b1-4)]GlcNAc(b1-3)Gal(b1-4)[Fuc(a1-3)]GlcNAc", "outline": "as §1"}, "[24]": {"target": "Fuc(a1-3)[Gal(b1-4)]GlcNAc(b1-3)Gal(b1-4)[Fuc(a1-3)]GlcNAc(b1-3)Gal(b1-4)[Fuc(a1-3)]GlcNAc", "outline": "as §1"}, "[25]": {"target": "Fuc(a1-3)[Gal(b1-4)]GlcNAc(b1-3)GalNAc", "outline": "as §1"}, "[26]": {"target": "Fuc(a1-3)[Gal(b1-4)]GlcNAc(b1-6)GalNAc", "outline": "as §1"}, "[27]": {"target": "Fuc(a1-3)[Gal(b1-4)]GlcNAc(b1-6)[Gal(b1-3)GlcNAc(b1-3)]Gal(b1-4)Glc", "outline": "as §1"}, "[28]": {"target": "Fuc(a1-3)[Gal(b1-4)]GlcNAc6S", "outline": "as §1"}, "[29]": {"target": "Fuc(a1-3)[Gal3S(b1-4)]Glc", "outline": "as §1"}, "[30]": {"target": "Fuc(a1-3)[Gal3S(b1-4)]GlcNAc", "outline": "as §1"}, "[31]": {"target": "Fuc(a1-3)[Gal3S(b1-4)]GlcNAc6S", "outline": "as §1"}, "[32]": {"target": "Fuc(a1-3)[GalNAc(b1-4)]GlcNAc", "outline": "as §1"}, "[33]": {"target": "Fuc(a1-3)[GalNAc(b1-4)]GlcNAc6S", "outline": "as §1"}, "[34]": {"target": "Fuc(a1-4)GlcNAc", "outline": "as §1"}, "[35]": {"target": "Fuc(b1-3)GlcNAc", "outline": "as §1"}, "[36]": {"target": "Gal(a1-2)Gal", "outline": "as §1"}, "[37]": {"target": "Gal(a1-3)Gal", "outline": "as §1"}}, "note": "Some of the results follow."}
{"binder": "Mg3lysM (Mycosphaerella graminicola) (protein) APQNPPTSCSAAPQPTGTGSPGTVCGSTTFTNYTVKAGDTLGAIAKQYNSGVCDIAKVNGIDNPDYIKPDQVLSIPANCVTPDNTSCVKPVPVITNTCVLGVGSTYTVKSGDSFSAIATSFNITLASLEARNPQIPNYDLIFPGQVINTPLCPNSVCDSIGTYVIESGDIFYNLAQSNNVTVGQLESLNVNVNVTDIHPGDIIILPHNCHNITASA", "values": [{"measurement": "glycan array binding signal (z-score)", "setting": "[1]", "value": -0.202}, {"measurement": "glycan array binding signal (z-score)", "setting": "[2]", "value": -0.072}, {"measurement": "glycan array binding signal (z-score)", "setting": "[3]", "value": -0.074}, {"measurement": "glycan array binding signal (z-score)", "setting": "[4]", "value": -0.184}, {"measurement": "glycan array binding signal (z-score)", "setting": "[5]", "value": -0.021}, {"measurement": "glycan array binding signal (z-score)", "setting": "[6]", "value": 0.01}, {"measurement": "glycan array binding signal (z-score)", "setting": "[7]", "value": 0.011}, {"measurement": "glycan array binding signal (z-score)", "setting": "[8]", "value": 0.065}, {"measurement": "glycan array binding signal (z-score)", "setting": "[9]", "value": -0.059}, {"measurement": "glycan array binding signal (z-score)", "setting": "[10]", "value": -0.102}, {"measurement": "glycan array binding signal (z-score)", "setting": "[11]", "value": -0.108}, {"measurement": "glycan array binding signal (z-score)", "setting": "[12]", "value": -0.123}, {"measurement": "glycan array binding signal (z-score)", "setting": "[13]", "value": -0.129}, {"measurement": "glycan array binding signal (z-score)", "setting": "[14]", "value": -0.016}, {"measurement": "glycan array binding signal (z-score)", "setting": "[15]", "value": -0.192}, {"measurement": "glycan array binding signal (z-score)", "setting": "[16]", "value": -0.088}, {"measurement": "glycan array binding signal (z-score)", "setting": "[17]", "value": 0.003}, {"measurement": "glycan array binding signal (z-score)", "setting": "[18]", "value": -0.067}, {"measurement": "glycan array binding signal (z-score)", "setting": "[19]", "value": -0.12}, {"measurement": "glycan array binding signal (z-score)", "setting": "[20]", "value": 0.048}, {"measurement": "glycan array binding signal (z-score)", "setting": "[21]", "value": -0.018}, {"measurement": "glycan array binding signal (z-score)", "setting": "[22]", "value": 0.004}, {"measurement": "glycan array binding signal (z-score)", "setting": "[23]", "value": -0.081}, {"measurement": "glycan array binding signal (z-score)", "setting": "[24]", "value": -0.075}, {"measurement": "glycan array binding signal (z-score)", "setting": "[25]", "value": -0.11}, {"measurement": "glycan array binding signal (z-score)", "setting": "[26]", "value": -0.105}, {"measurement": "glycan array binding signal (z-score)", "setting": "[27]", "value": -0.125}, {"measurement": "glycan array binding signal (z-score)", "setting": "[28]", "value": 0.023}, {"measurement": "glycan array binding signal (z-score)", "setting": "[29]", "value": -0.089}, {"measurement": "glycan array binding signal (z-score)", "setting": "[30]", "value": -0.05}, {"measurement": "glycan array binding signal (z-score)", "setting": "[31]", "value": -0.107}, {"measurement": "glycan array binding signal (z-score)", "setting": "[32]", "value": -0.1}, {"measurement": "glycan array binding signal (z-score)", "setting": "[33]", "value": 0.075}, {"measurement": "glycan array binding signal (z-score)", "setting": "[34]", "value": -0.083}, {"measurement": "glycan array binding signal (z-score)", "setting": "[35]", "value": -0.051}, {"measurement": "glycan array binding signal (z-score)", "setting": "[36]", "value": -0.177}, {"measurement": "glycan array binding signal (z-score)", "setting": "[37]", "value": -0.044}]}
